From PubChem BioAssay AID894 (National Center for Advancing Translational Sciences (NCATS), 2007)
Where “and” joins values, the source holds several entries; their conditions need not be identical. Equal values may be shown once. About 6,500 (4.3%) of roughly 150,000 compounds were called active. About 12% were inconclusive and are not listed. Calls follow the shape of the dose curve; as a rule, active = well fitted inhibition curve with a large enough effect (not every such curve was filed as active); inconclusive = small, poorly fitted or top-dose-only effect, or another doubt; inactive = no such curve, though single readings can be large or run the other way. This is a selection; strong and weak results do not stand in their true shares. The source holds several records for some structures; these can differ, active in one and inactive in another.

biological target: 15-hydroxyprostaglandin dehydrogenase [NAD(+)] (Homo sapiens) (UniProt P15428); assay: qHTS Assay for Inhibitors of HPGD (15-Hydroxyprostaglandin Dehydrogenase); details: purified HPGD, NADH fluorescence kinetic, PGE2 substrate; activity change, negative = inhibition: active compounds read low
Method in brief: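 20 nM HPGD preincubated 15 min at room temperature with compound in 50 mM Tris-HCl pH 8, 0.01% Tween 20. Started with 1 mM NAD+ and 30 uM prostaglandin E2; NADH fluorescence (360/450 nm) read 5 times over 30-s intervals, last minus first.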
% is scaled to controls: 0 for no effect and ±100 for the full control effect; potency is read from the fitted curve at half-maximal effect.

Sequence of UniProt P15428 (P15428 whole entry, looked up): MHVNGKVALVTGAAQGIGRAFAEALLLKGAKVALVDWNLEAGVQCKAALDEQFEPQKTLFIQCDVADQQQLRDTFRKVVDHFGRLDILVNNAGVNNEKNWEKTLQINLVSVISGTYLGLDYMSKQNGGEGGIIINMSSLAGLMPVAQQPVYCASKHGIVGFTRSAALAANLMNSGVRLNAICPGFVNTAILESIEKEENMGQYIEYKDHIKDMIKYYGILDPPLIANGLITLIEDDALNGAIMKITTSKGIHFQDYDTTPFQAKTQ

Structure (SMILES)	activity change, negative = inhibition	Potency
CC(C(=O)O)c1cccc(C(=O)c2ccccc2)c1 (centres undefined)	inactive: -8.39% and inactive: -16.9%	–
CCc1nc(N)c(C#N)c(-c2ccc(OC)c(OC)c2)c1C	inactive: 42.4%	–
C=CCn1c(SCC(=O)c2ccccc2)nnc1-c1ccc2c(c1)OCO2	–	active: 5.62 µM
COc1cc(/C=N/NC(=O)c2ccc(O)cc2)ccc1Oc1ccc([N+](=O)[O-])cn1	–	active: 22.4 µM
CNc1ccccc1C(=O)OCC(=O)c1ccccc1	inactive: 80.2%	–
C=C1c2c(Cl)ccc(O)c2C(O)=C2C(=O)[C@@]3(O)C(O)=C(C(N)=O)C(=O)[C@@H](N(C)C)[C@@H]3[C@@H](O)[C@H]12	inactive: -21.2%	–
Cc1cc(C)cc(NC(=O)/C(C#N)=C/c2cn(CC(=O)NCc3ccco3)c3ccccc23)c1	inactive: 167%	–
Cc1cc(SCC(=O)NCCC2=CCCCC2)nc2ccccc12	–	active: 25.1 µM
N#C/C(C(=O)Oc1ccccc1)=C1/Nc2ccccc2-c2ccccc21	inactive: 63.7%	–
O=C(CSc1nc2ccccc2nc1SCC(=O)N1CCCCC1)N1CCCCC1	–	active: 2.51 µM
C/C(=C\COc1cc(=O)[nH]c2ccccc12)CCC(O)C(C)(C)O (centres undefined)	inactive: -9.36%	–
COc1cc2cc(Oc3ccc4ccc(=O)oc4c3)c(=O)oc2cc1O	inactive: -21.7%	–
N[C@@H](CCC(=O)N[C@H](CSN=O)C(=O)NCC(=O)O)C(=O)O	inactive: -4.78%	–
NC(C(=O)N[C@@H]1C(=O)N2C(C(=O)O)=C(Cl)CS[C@H]12)c1ccccc1 (some centres undefined)	inactive: -25.9%	–
NC(=NCc1ccccc1)NC(=O)c1nc(Cl)c(N)nc1N	inactive: -18.5%	–
O=C(O)c1cc(O)c2c(c1)C(=O)c1cccc(O)c1C2=O	inactive: -0.291% and inactive: -27.5%	–
Cc1nnc(SCc2cc(=O)oc3ccc4ccccc4c23)n1Cc1ccccc1	inactive: 35%	–
O=C(Nc1ccn(Cc2ccccc2F)n1)c1ccc(COc2cc(Cl)ccc2Cl)o1	inactive: 194%	–
COC(=O)[C@H](Cc1ccccc1)NC(=O)O[C@H]1C(=O)c2cc(OC)ccc2O[C@@H]1c1ccc(OC)c(Br)c1	inactive: -18.3% and inactive: -4.5%	–
COc1ccc(C(=O)N/C(=C/c2cccc3ccccc23)C(=O)NCCc2c[nH]c3ccccc23)cc1OC	inactive: -12.7%	–
CC(C)NC[C@@H](O)c1ccc(O)c(O)c1	inactive: -2.34%	–
COc1cc(C2Oc3cc(C4Oc5cc(O)cc(O)c5C(=O)C4O)ccc3OC2CO)ccc1O (centres undefined)	inactive: -21.4%	–
N#C/C(=C\c1cn(CCOc2ccccc2F)c2ccccc12)C(=O)NCc1cccs1	inactive: 399%	–
CCNC(=O)CCS(=O)(=O)c1ccc2ccccc2c1	–	active: 31.6 µM
C#CCn1c(=NC(=O)c2ccc(Br)s2)sc2cccc(OC)c21	inactive: 254%	–
O=c1nc2s/c(=C\c3ccc(-c4ccccc4[N+](=O)[O-])o3)c(=O)n2nc1-c1ccccc1	–	active: 7.94 µM
CC(C)Cn1c(N)c(C(=O)COC(=O)c2cc(C3CC3)nc3ccccc23)c(=O)n(C)c1=O	inactive: -27.6%	–

Structure (SMILES)	activity change, negative = inhibition	Potency
Cc1ccc2c(c1)Sc1ccccc1CC2=O	–	active: 25.1 µM
Cc1ccc(N/N=C(\C#N)C(N)=S)c(C)c1	–	active: 14.1 µM
CC(=O)Oc1ccccc1C(=O)O	inactive: -7.33% and inactive: -17.7%	–
Cn1cc(C(F)(F)F)nc1-c1ccc(OC[C@@H](O)CNCCOc2ccc(O)c(C(N)=O)c2)cc1	inactive: -16.2%	–
Cc1ccnc(NC(=O)c2ccc([N+](=O)[O-])o2)c1	inactive: 284%	–
Cc1onc(-c2ccccc2Cl)c1C(=O)N[C@H]1C(=O)N2[C@H]1SC(C)(C)[C@H]2C(=O)O	inactive: -0.4%	–
Nc1cccc(-c2cc(-c3ccccc3)nc(-c3cccc(N)c3)n2)c1	inactive: 30.6%	–
CCOc1ccc(-c2n[nH]c(C)c2-c2ccccc2OC)c(O)c1	inactive: 67.6%	–
COc1c(Cl)cc(C(=O)Nc2ccccc2C(=O)O)cc1Cl	–	active: 14.1 µM
CCCCNC(=S)Nc1cccc(C(C)=O)c1	–	active: 31.6 µM
CCCn1c(=O)[nH]c(=O)c2[nH]cnc21	inactive: -17.8%	–
O=C(O)c1cn(C2CC2)c2cc(N3CCNCC3)c(F)cc2c1=O	inactive: -15.5%	–
CCN(CC)S(=O)(=O)c1ccc2oc(C(=O)Nc3ccc(OC)cc3OC)c(C)c2c1	inactive: 542%	–
Cc1nc2ccc(NC(=O)c3ccc(S(=O)(=O)N4CCOCC4)cc3)cc2s1	inactive: 68%	–
CC1=Nn2c(nnc2-c2ccccc2Cl)SC1	–	active: 25.1 µM
COc1ccccc1-c1c(C)nn2c(N3CCN(c4ccccc4OC)CC3)cc(C)nc12	inactive: 85.3%	–
O=C(Nc1ccc(S(=O)(=O)N2CCN(c3ccccc3)CC2)cc1)c1cccs1	inactive: 269%	–
C[C@@H](C(=O)O)c1cccc(C(=O)c2ccccc2)c1	inactive: -6.84%	–
CCc1nc(NCC(C)C)c(C#N)c2c1COC(C)(C)C2	inactive: 89.2%	–
Cn1c(=O)cc(SCC(=O)NCCC2=CCCCC2)c2ccccc21	–	active: 7.08 µM
Oc1c(Cl)cc(Cl)c(Cl)c1Cc1c(O)c(Cl)cc(Cl)c1Cl	inactive: -15.8% and inactive: -6.53%	–
COC(=O)[C@@H]1C2CC3c4[nH]c5cc(OC)ccc5c4CCN3CC2C[C@H](OC(=O)c2cc(OC)c(OC)c(OC)c2)C1OC (some centres undefined)	inactive: -19.4%	–
CCOC(=O)c1cc2ccc(OC(=O)c3ccco3)cc2oc1=O	inactive: 91.3%	–
C/C=C(\C)C(=O)OC1c2c(ccc3ccc(=O)oc23)OC(C)(C)C1OC(C)=O (centres undefined)	inactive: -5.42% and inactive: -15.1%	–
CCCc1c(OCC(O)COc2ccc3c(=O)cc(C(=O)O)oc3c2CCC)ccc(C(C)=O)c1O (centres undefined)	–	active: 17.8 µM
O=c1c(O)c(-c2ccc(O)cc2O)oc2cc(O)cc(O)c12	inactive: -15.9% and inactive: -24.4%	–
O=c1c2ccccc2oc2nc(-c3ccco3)n(-c3ccccc3)c(=O)c12	inactive: 30.2%	–
